Data taken from the supplement of paper PMC3334620.
Over roughly 33,000 sequences, “E-score (-0.5 to 0.5)” has its median near -0.04; the highest 2% begin near 0.36. Some of the results follow.

Molecular target: T1, Hmlalpha2 (UniProt P0CY09)
T1 sequence: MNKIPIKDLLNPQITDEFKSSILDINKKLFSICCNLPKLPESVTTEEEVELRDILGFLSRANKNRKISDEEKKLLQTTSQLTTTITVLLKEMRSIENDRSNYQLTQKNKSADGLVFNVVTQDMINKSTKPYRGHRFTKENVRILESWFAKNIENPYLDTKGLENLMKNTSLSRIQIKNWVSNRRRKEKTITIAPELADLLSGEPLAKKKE
Test: PBM E-score (8-mer binding enrichment) (E-score (-0.5 to 0.5)); higher = stronger / more preferred TF binding; most listed sequences are background and not binding sites
Conditions: protein concentration: 200 nM; construct: GST-full length
In short: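 Bound GST-tagged yeast transcription factors, applied at about 100-200 nM to double-stranded universal all-10-mer Agilent arrays, were detected with fluorescent anti-GST. Scans were normalised with masliner. A modified Wilcoxon-Mann-Whitney statistic, the E-score, was assigned to each ungapped eight-base word pooled with its reverse complement by the Universal PBM Analysis Suite.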

Row | Sequence | PBM E-score
1 | CCTCTGTA | 0.111
2 | GACTAACA | 0.164
3 | GAGGTAGC | -0.223
4 | AATAGTGT | 0.0883
5 | ACAAAACG | 0.22
6 | CGGTCACA | -0.178
7 | AAGGCCTT | -0.124
8 | ATGCGACC | 0.0646
9 | CGACTACC | -0.197
10 | GCATCCAA | -0.18
11 | ATGGTTAA | 0.139
12 | CTTGTTAC | 0.274
13 | CATTCGGG | -0.162
14 | AGCAAGTG | -0.048
15 | CATGAAGG | 0.0817
16 | AATTTATA | 0.203
17 | GCGCGTCA | 0.0726
18 | CCGTCTCA | -0.136
19 | ACTAGCTC | 0.121
20 | ATTGGAGG | -0.299
21 | CCGTCGCA | -0.0478
22 | CAATACGG | -0.195
23 | ACGCGACT | 0.218
24 | ACGAGGAA | 0.0596
25 | GCGTGGTA | 0.0607
26 | GTAGGGGA | -0.222

Row | Sequence | PBM E-score
27 | ATCACCTC | 0.0325
28 | GAATAAAC | 0.149
29 | AGCGTCCC | -0.0394
30 | ATGCCAAT | -0.00419
31 | CATCTTAG | 0.0694
32 | ATCGATAG | 0.106
33 | GTTTACCA | 0.21
34 | AAGCAGAG | -0.0565
35 | ACTCCTGC | -0.115
36 | GCAGACCA | -0.185
37 | ATCTCGGG | -0.157
38 | GCACTTTA | 0.0891
39 | ACGCGACA | 0.231
40 | GCAGAGAA | 0.0113
41 | GCCGGTCC | -0.423
42 | CGGCTCAC | -0.0995
43 | CGCGAGCC | -0.234
44 | CCGGGGAA | -0.0784
45 | AATGGAAA | -0.0212
46 | AAGGGCAT | -0.141
47 | AATCACAA | 0.066
48 | AGTCCGAT | -0.0997
49 | GTCTCAAC | -0.0177
50 | GATTATAA | 0.0937
51 | ACTGGTCA | 0.02
52 | ATTGAGAG | -0.0922

Row | Sequence | PBM E-score
53 | AAAGGATA | -0.00272
54 | AGCGGTAC | 0.0292
55 | CAGTACAG | 0.0351
56 | GCCCAACA | 0.0958
57 | AATCCCCT | -0.25
58 | AATTAGTC | 0.137
59 | CAGGCTTC | -0.0702
60 | CCGAAGCC | -0.274
61 | CAGTGCGA | -0.104
62 | CCGGACTC | -0.0206
63 | AGCTGATG | 0.0229
64 | CAGTAGGG | -0.186
65 | GGCGCGGA | -0.23
66 | ATAGTCGG | -0.107
67 | AGTGTGAC | 0.0615
68 | ACGTCCCC | -0.0609
69 | ATCCTAGA | -0.104
70 | AGGGTACG | 0.0138
71 | ACAGTAGA | 0.176
72 | ACAAATAC | 0.3
73 | CGTCTCCA | -0.0468
74 | ATCGGGAC | -0.17
75 | AAGGGATC | -0.156
76 | ATCCCGTA | 0.118
77 | AGTCCAGA | -0.0435
78 | AGGAGCTA | -0.107

Row | Sequence | PBM E-score
79 | CGGAGATA | -0.185
80 | CAGCACCG | -0.189
81 | CTGAAGAC | -0.23
82 | CCGAGTAA | 0.183
83 | ACGACTTA | -0.104
84 | GGTCACAC | -0.0337
85 | GACTGCAC | -0.153
86 | TAACCCGA | 0.0718
87 | TACTACGA | 0.17
88 | CCAGACAA | -0.138
89 | TAGGGTGA | -0.0617
90 | TCCTCTAA | -0.127
91 | CTACCCTA | -0.15
92 | GGCTCGTA | 0.147
93 | GGCATGCA | 0.128
94 | TCCGCCAA | -0.29
95 | CTCATTAC | 0.315
96 | GTTTACAA | 0.425
97 | ACGGCCTC | -0.274
98 | ACTTGCTG | 0.0428
99 | ATGGACCC | -0.176
100 | ATTATACG | 0.256
101 | AACCCTAC | -0.0838
102 | AGGCCAAG | -0.247
103 | CATGTGTA | 0.427
104 | AGGAGCAC | -0.18

Row | Sequence | PBM E-score
105 | CGAATGCA | 0.145
106 | AACAGGGA | 0.0712
107 | CAGAGTGC | -0.135
108 | CCCACCCC | -0.238
109 | AGCCTCTA | -0.27
110 | ACATCTTG | 0.00807
111 | AATAAACG | 0.214
112 | AGATATTC | -0.109
113 | GATAATAC | 0.115
114 | ACGCAGGA | 0.115
115 | AATGTAAG | 0.294
116 | ATACATAT | 0.393
117 | AAGAGGGG | -0.322
118 | CCGCGTCG | 0.132
119 | GCTTTAAA | 0.095
120 | CATGCGCA | 0.187
121 | ACGCCCTG | -0.00258
122 | GCGCGGCC | -0.135
123 | TGGGGTAA | 0.00932
124 | AATGGGCT | -0.0382
125 | AACCGGAA | -0.215
126 | CCGACGCA | -0.14
127 | ACCCAATA | -0.129
128 | AGCGCTGC | 0.0316
129 | ATAACATG | 0.452
